# In the supplement of paper PMC10441789:
# Some of the results follow. Antibody binding of pooled human sera (four to six donors per pool; dilution not stated) to peptides of the Trypanosoma cruzi antigen TSSA on microarrays. Quantile-normalised fluorescence in arbitrary units, mean of duplicate arrays; higher = more binding. No active / inactive call. The uninfected pools are read here as the healthy donors of the same country. The strongest signals lie near the top of the scale (about 60,000).
# Columns and labels:
# Experiment in all cases: antibody binding signal (normalised fluorescence) (arbitrary fluorescence units); higher = stronger serum antibody binding to peptide
# [1] = system: pooled sera of chronic Chagas disease patients, Argentina
# Protocol: (§1)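 Microarray of 15-residue peptides over residues 30-55 of Trypanosoma cruzi TSSAII, each with 1 to 10 substitutions at naturally variable positions, probed with one serum pool per country.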
# [2] = system: pooled sera of chronic Chagas disease patients, Bolivia
# Protocol: as §1
# [3] = system: pooled sera of chronic Chagas disease patients, Brazil
# Protocol: as §1
# [4] = system: pooled sera of chronic Chagas disease patients, Colombia
# Protocol: as §1
# [5] = system: pooled sera of chronic Chagas disease patients, Mexico
# Protocol: as §1
# [6] = system: pooled sera of chronic Chagas disease patients, USA
# Protocol: as §1
# [7] = system: pooled sera of uninfected people, Argentina
# Protocol: as §1
# [8] = system: pooled sera of uninfected people, Bolivia
# Protocol: as §1
# [9] = system: pooled sera of uninfected people, Brazil
# Protocol: as §1
# [10] = system: pooled sera of uninfected people, Colombia
# Protocol: as §1
# [11] = system: pooled sera of uninfected people, Mexico
# Protocol: as §1
# [12] = system: pooled sera of uninfected people, USA
# Protocol: as §1
Sequence,antibody binding signal [1],antibody binding signal [2],antibody binding signal [3],antibody binding signal [4],antibody binding signal [5],antibody binding signal [6],antibody binding signal [7],antibody binding signal [8],antibody binding signal [9],antibody binding signal [10],antibody binding signal [11],antibody binding signal [12]
SGKDKKTATGGAPSQ,1030,286,584,987,704,870,222,91.7,90.8,137,106,91.4
TSSTPPSGKDNKTAT,14200,11500,6930,2570,20400,2810,351,474,161,247,126,190
GKDKKTATGGTPSQP,518,270,252,2010,858,1770,253,75.5,109,119,348,84.5
KDKKPATGEAPSQSG,41300,20100,42000,135,171,30400,830,332,157,185,121,111
TPPSGKEKKPAAGGA,11100,231,332,752,37300,822,577,334,205,218,87.8,225
GTENKPATGEAPSPP,46000,48800,48200,954,1760,43700,1100,1320,475,145,228,183
TENKTATGGAPSQPG,22300,1800,5040,422,420,880,319,174,336,137,545,181
GTENKPAAGEAPSQS,43200,22900,32100,2100,4410,17300,317,1550,293,106,165,109
SGTENKAAAGETPSQ,37200,8540,20200,478,503,5280,442,418,135,171,165,112
KTATGEAPSQPGASS,19800,16500,44800,150,633,21200,305,130,195,84.1,191,143
DKKTATGETPSQSGA,886,821,3830,282,391,6390,267,203,237,128,513,176
GTDNKAAAGEAPSPS,170,681,35600,231,153,12400,155,590,1480,82,119,82.8
SSTPPSGKDKKTAAG,6540,628,624,548,31800,541,125,233,111,137,95.1,159
ENKPAAGGTPSQPGA,386,2390,9370,1490,420,2210,319,562,1100,585,615,263
PPSGTDKKAAAGGTP,7080,1070,20300,9250,29400,2410,257,204,897,462,1270,248
KENKTAAGETPSQPG,504,707,30100,852,351,2910,171,394,168,220,154,189
PPSGTDKKTAAGGAP,12100,6830,17100,10800,36400,1650,537,439,186,543,1190,380
GTDNKPAAGETPSPS,1760,279,41200,984,245,4490,141,689,524,177,525,1930
TPPSGTDNKAAAGET,28600,36300,45400,994,3370,9930,608,606,814,167,216,140
PSGTDNKAATGGTPS,19300,11100,43400,1140,928,853,227,621,1640,405,310,206
